Some of the results follow.
Tests used:
HSkMC = human skeletal muscle cells; test: cytotoxicity call (relative viability < 0.9); conditions: 10 µM
HepG2 = test: cytotoxicity call (relative viability < 0.9); conditions: 10 µM
S. aureus RN4220 = test: growth inhibition call (relative growth <= 0.2); conditions: 50 µM

C[C@H](CO)N1C[C@H](C)[C@@H](CN(C)Cc2ccc(Oc3ccccc3)cc2)Oc2c(NC(=O)Cc3ccccc3)cccc2C1=O
inactive: cytotoxicity call (HSkMC) | cytotoxicity call (HepG2) | growth inhibition call (S. aureus RN4220)

CN(C)C(=O)C[C@@H]1CC[C@@H](NC(=O)C2CCOCC2)[C@H](CO)O1
inactive: cytotoxicity call (HSkMC) | cytotoxicity call (HepG2) | growth inhibition call (S. aureus RN4220)

C[C@H]1CN([C@@H](C)CO)C(=O)CCCn2cc(nn2)CO[C@@H]1CN(C)C(=O)Nc1ccc(N2CCN(C)CC2)cc1
inactive: cytotoxicity call (HSkMC) | cytotoxicity call (HepG2) | growth inhibition call (S. aureus RN4220)

C[C@H](CO)N1C[C@H](C)[C@H](CN(C)C(=O)Nc2ccccc2)OCCCC[C@H](C)Oc2ccc(NC(=O)CCC(F)(F)F)cc2C1=O
inactive: cytotoxicity call (HSkMC) | cytotoxicity call (HepG2) | growth inhibition call (S. aureus RN4220)

C[C@@H]1CCCCO[C@H](CN(C)C(=O)c2ccccc2)[C@H](C)CN([C@@H](C)CO)C(=O)c2cc(NC(=O)c3ccccc3)ccc2O1
inactive: cytotoxicity call (HSkMC) | cytotoxicity call (HepG2) | growth inhibition call (S. aureus RN4220)

CCCNC(=O)c1cc2c(c(-c3cccc(-c4cccc(OC)c4)c3)n1)[C@@H](CCO)N([S@](=O)C(C)(C)C)C2
inactive: cytotoxicity call (HSkMC) | cytotoxicity call (HepG2) | growth inhibition call (S. aureus RN4220)

Cc1noc(C)c1NC(=O)N(C)C[C@H]1Oc2c(NS(C)(=O)=O)cccc2C(=O)N([C@@H](C)CO)C[C@@H]1C
inactive: cytotoxicity call (HSkMC) | cytotoxicity call (HepG2) | growth inhibition call (S. aureus RN4220)

Cc1noc(C)c1NC(=O)N(C)C[C@H]1Oc2c(NS(=O)(=O)c3c(C)noc3C)cccc2C(=O)N([C@H](C)CO)C[C@H]1C
inactive: cytotoxicity call (HSkMC) | cytotoxicity call (HepG2) | growth inhibition call (S. aureus RN4220)

Cc1nnn2c1COC[C@H](CNS(C)(=O)=O)C2
inactive: cytotoxicity call (HSkMC) | cytotoxicity call (HepG2) | growth inhibition call (S. aureus RN4220)

C[C@@H]1CN([C@@H](C)CO)C(=O)c2cccc(NS(C)(=O)=O)c2O[C@@H]1CN(C)C(=O)NC1CCCCC1
inactive: cytotoxicity call (HSkMC) | cytotoxicity call (HepG2) | growth inhibition call (S. aureus RN4220)
